Data: patent US9018177B2 (L'Oreal S.A., priority 2012, dated 2015)

Test system: human ex-vivo skin
Test: Ex-vivo testing of hydrotropes as penetration enhancers by CARS (coherent anti-stokes raman spectroscopy)
Settings: addition of hydrotropes in the final formulation versus none

In the case of `O=C(O)[C@H]1O[C@@H](Oc2cc3oc(-c4ccccc4)cc(=O)c3c(O)c2O)[C@H](O)[C@@H](O)[C@@H]1O` [baicalin], the penetration depth is reported as “improves the penetration depth”.
